Assay results: PubChem BioAssay AID1030 (National Center for Advancing Translational Sciences (NCATS), 2008)
Out of some 220,000 compounds screened, about 16,000 (7.3%) were called active. Inconclusive means that the source gave no clear call. Such entries were picked first, then a sample of the others. Calls come from the whole dose curve; as a rule, active = well fitted inhibition curve with a large enough effect (not every such curve was filed as active); inconclusive = small, poorly fitted or top-dose-only effect, or another doubt; inactive = no such curve, though single readings can be large or run the other way. No potency is given beside an inconclusive call; the fits are too rough.
Potency is the fitted concentration of half-maximal effect; tags give direction and shape of the fitted curve.
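Throughout, for activity, negative = inhibition: plate controls were no enzyme wells and a reference inhibitor.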

What follows are compounds tested against Aldehyde dehydrogenase 1A1 (Homo sapiens) (UniProt P00352) (assay: qHTS Assay for Inhibitors of Aldehyde Dehydrogenase 1 (ALDH1A1)). Details: Purified ALDH1A1, NADH fluorescence, propionaldehyde substrate; series mostly up to 75.3 µM; activity, negative = inhibition: at the top concentration.
Chain of UniProt P00352 (P00352 whole entry, looked up): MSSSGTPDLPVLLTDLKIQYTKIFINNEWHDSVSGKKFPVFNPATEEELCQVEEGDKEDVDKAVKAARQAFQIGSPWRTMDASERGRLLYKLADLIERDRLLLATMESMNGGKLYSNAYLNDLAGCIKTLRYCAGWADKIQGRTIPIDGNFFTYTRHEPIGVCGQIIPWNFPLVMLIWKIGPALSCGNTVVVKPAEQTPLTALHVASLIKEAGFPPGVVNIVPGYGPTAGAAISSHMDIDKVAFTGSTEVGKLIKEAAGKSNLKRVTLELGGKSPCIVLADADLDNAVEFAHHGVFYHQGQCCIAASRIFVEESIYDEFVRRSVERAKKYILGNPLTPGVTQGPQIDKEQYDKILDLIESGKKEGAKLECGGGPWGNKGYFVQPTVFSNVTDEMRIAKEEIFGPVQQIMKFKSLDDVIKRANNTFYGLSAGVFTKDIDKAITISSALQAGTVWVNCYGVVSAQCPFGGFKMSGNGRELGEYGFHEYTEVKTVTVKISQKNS
With `O=C(c1ccc2c(c1)OCO2)C1CCCN(Cc2cn[nH]c2-c2ccccc2)C1` (stereo not drawn) the “activity, negative = inhibition” value was inactive: -5.99%.
With `O=C(NCc1ccccc1Cl)c1ccc2c(=O)n(CCCN3CCCC3=O)c(=S)[nH]c2c1` the Potency was active: 0.631 µM.
`O=C(O)CN1CCN(Cc2ccc(F)cc2Cl)C1=O` was tested, and the Potency was inconclusive [inhibitor, single point].
For `COc1ccc(-n2c(C)cc(/C=C3/SC(=O)N(CC(=O)N4CCOCC4)C3=O)c2C)cc1`, the Potency was inconclusive [inhibitor, single point].
For `Cn1c(=O)c2c(nc(NCc3ccco3)n2CC(O)COc2ccccc2)n(C)c1=O` (stereo not drawn), the “activity, negative = inhibition” value was inactive: 6.45%.
In the case of `CN1[C@H](Cc2ccccc2)C=C[C@]1(C)C(=O)NCC1CC1`, the Potency is reported as active: 28.2 µM.
`CCn1c2ccc(/C(C)=N\O)cc2c2cc(/C(C)=N\O)ccc21` was tested, and the “activity, negative = inhibition” value was inactive: -1.92%.
For `Cc1ccc(C(c2c(O)nc3n(c2=O)CCS3)c2c(O)nc3n(c2=O)CCS3)cc1`, the Potency was inconclusive [inhibitor, single point].
`O=C(NCc1ccco1)c1ccc([N+](=O)[O-])o1` was tested, and the “activity, negative = inhibition” value was inactive: -2.71%.
`O=c1c(CN2CCN(Cc3ccccc3)CC2)coc2ccc(Cl)cc12` was tested, and the Potency was active: 8.91 µM.
For `N/C(Cc1ccc(Cl)cc1)=N\OC(=O)c1cccc2ccccc12`, the Potency was inconclusive [inhibitor, single point].
In the case of `COc1ccc(OC)c(NC(=O)c2cc3sccc3n2C)c1`, the Potency is reported as inconclusive [inhibitor, single point].
`CC(=O)c1cccc(S(=O)(=O)N2CCCC(c3nc(-c4ccc(C)o4)no3)C2)c1` (stereo not drawn) was tested, and the Potency was active: 10 µM.
With `O=C(N/N=C/c1ccc(Br)o1)/C(=C/c1ccc([N+](=O)[O-])cc1)NC(=O)c1ccccc1` the Potency was inconclusive [inhibitor, single point].
For `CCCCC(=O)Nc1nnc(-c2ccco2)o1`, the Potency was inconclusive [inhibitor, single point].
For `O=C(CCC1CCCC1)NCCCN1CCOCC1`, the Potency was inconclusive [inhibitor, single point].
`CCC(C)(C)n1nnnc1CN1CCN(c2nc3cc(OC)ccc3cc2C#N)CC1` was tested, and the Potency was inconclusive [inhibitor, partial curve].
For `COc1ccc(NC(=O)CN2CCC3(O)CCCCC3C2c2ccccc2OC)cc1` (stereo not drawn), the “activity, negative = inhibition” value was inactive: 4.86%.
`COc1cccc(NC(=O)CSc2nnc(Cc3cccs3)n2-c2ccc(C)cc2)c1` was tested, and the Potency was active: 2.99 µM.
`COc1cc(/C=N\NC(=O)CNC(=O)C2COc3ccccc3O2)ccc1O` (stereo not drawn) was tested, and the “activity, negative = inhibition” value was inactive: 6.19%.
In the case of `CCC(C)(C)n1nnnc1C(c1ccccc1OC)N1CCSCC1` (stereo not drawn), the Potency is reported as inconclusive [inhibitor, single point].
`O=C(/C=C/c1ccc2ccccc2n1)c1cc(Br)ccc1O` was tested, and the Potency was inconclusive [inhibitor, partial curve].
With `CN1CCN(NS(=O)(=O)c2ccc(Cl)s2)CC1` the Potency was inconclusive [inhibitor, single point].
`CCN1CCN(CC(=O)N2CCCC(C(=O)c3ccc(Oc4ccccc4)cc3)C2)CC1` (stereo not drawn) was tested, and the Potency was inconclusive [inhibitor, single point].
For `CCN1/C(=C2\C(=O)N(C)C(=S)N2C)C=Cc2cc(OC)ccc21`, the Potency was inconclusive [inhibitor, single point].
With `COc1ccc(C2N(c3ccc(F)cc3)C(=O)C3CCCN32)cc1` (stereo not drawn) the Potency was inconclusive [inhibitor, single point].
`O=C(O)CS(=O)(=O)c1ccc(C(F)(F)F)cn1` was tested, and the “activity, negative = inhibition” value was inactive: -0.944%.
`CCOC(=O)c1ccc(NC(=O)COC(=O)Cc2csc(-c3ccccc3)n2)cc1` was tested, and the “activity, negative = inhibition” value was inactive: -3.65%.
For `COc1ccc2c(CC(=O)Nc3ccc(OC)nc3)coc2c1`, the “activity, negative = inhibition” value was inactive: -3.76%.
For `CCOC(=O)C1=C(C)Nc2nc(=S)[nH]n2C1c1ccc(Cl)cc1` (stereo not drawn), the Potency was inconclusive [inhibitor, partial curve].
With `CCc1ccc(-c2nc(NC(=S)NC(=O)c3cccs3)sc2C)cc1` the Potency was inconclusive [inhibitor, single point].
For `[O-][n+]1onc2c1CCC(=N/O)/C2=N\Nc1ccccc1`, the Potency was active: 3.55 µM.
With `COc1ccccc1NC(=S)NC(=O)C1CC1` the “activity, negative = inhibition” value was inactive: 3.17%.
For `COc1ccc(O[C@H]2C=C[C@@H](c3ccccc3)O[C@H]2CO/N=C(/C)CCC(=O)OC[C@@H]2O[C@H](C#Cc3ccccc3)C=C[C@@H]2Oc2ccc(C)cc2)cc1`, the activity, negative = inhibition was inactive: -4.6% [at 13.5 µM].
For `CCc1ccc(S(=O)(=O)/N=C2\C=CC(=O)c3ccccc32)cc1`, the Potency was inconclusive [inhibitor, single point].
For `O=C(NC1CCN(CC(=O)N(c2ccccc2)c2ccccc2)CC1)c1ccc([N+](=O)[O-])cc1`, the Potency was inconclusive [inhibitor, single point].
`Cc1sc2ncn(CC(=O)NCCCC(=O)N3CCN(Cc4ccc5c(c4)OCO5)CC3)c(=O)c2c1C` was tested, and the “activity, negative = inhibition” value was inactive: 1.2%.
For `Cn1c(=N)n(CC(O)c2cccs2)c2ccccc21` (stereo not drawn), the “activity, negative = inhibition” value was inactive: 7.93%.
For `CCc1nnc(NC(=O)c2cc(S(=O)(=O)N3CCCCC3)ccc2N2CCOCC2)s1`, the “activity, negative = inhibition” value was inactive: -4.37%.
With `C=CC[N+](C)(C)CCN1C(=O)C2C(c3ccccc3)C=CC(c3ccccc3)C2C1=O` (stereo not drawn) the Potency was inconclusive [inhibitor, single point].
`CCn1c(SCC(=O)N2CCCc3ccccc32)nnc1-c1ccco1` was tested, and the Potency was active: 22.4 µM.
With `COC(=O)c1ccc(-n2c(C)cc(-c3csc(NC(=O)c4ccc(S(=O)(=O)N(C)C)cc4)n3)c2C)cc1` the Potency was inconclusive [inhibitor, full curve].
In the case of `Cc1nc(SCC(=O)c2ccccc2)c(C#N)c(-c2ccco2)c1C(=O)NCc1ccco1`, the Potency is reported as active: 10 µM.
With `Cc1ccc(N2C(=O)N(Cc3ccccc3C)c3ccccc3S2(=O)=O)cc1` the “activity, negative = inhibition” value was inactive: -2.52%.
For `CCn1nnc(-c2ccccc2NC(=O)c2cc(OC)c(OC)c(OC)c2)n1`, the Potency was inconclusive [inhibitor, single point].
In the case of `CCN(CC)c1ccc(/C=N/n2nnnc2N)c(O)c1`, the Potency is reported as inconclusive [inhibitor, partial curve].
In the case of `CCn1c(SCC(=O)N/N=C/c2c[nH]c3ccccc23)nnc1-c1ccc(C(C)(C)C)cc1`, the “activity, negative = inhibition” value is reported as inactive: -11.6%.
For `COC(=O)c1ccc(NC(=O)CN2C(=O)CSC2=O)cc1`, the “activity, negative = inhibition” value was inactive: -11.5%.
With `CC(=O)Nc1cccc(NC(=O)c2ccco2)c1` the Potency was inconclusive [inhibitor, partial curve, poor fit].
With `C[C@@]1(CO)[C@H](O)CC[C@]2(C)[C@@H]1CC[C@H]1C[C@H]3C[C@]12CC[C@]3(O)COC(=O)CN` the activity, negative = inhibition was inactive: -0.286% [at 13.5 µM].
For `Cc1csc(NC(=O)C2C3C=CC(O3)C2C(=O)O)n1` (stereo not drawn), the Potency was inconclusive [inhibitor, single point].
With `CCOc1ccc(S(=O)(=O)NCc2ccncc2)cc1` the Potency was inconclusive [inhibitor, single point].
With `COc1cc(/C=C2\C(=O)N(c3ccc(S(N)(=O)=O)cc3)N=C2C)ccc1OC(=O)c1ccco1` the Potency was inconclusive [inhibitor, single point].
In the case of `O=C(Nc1c(C(=O)N2CCCC2)cnn1-c1ccccc1)c1cccc(F)c1`, the Potency is reported as inconclusive [inhibitor, single point].
In the case of `Fc1ccc(-n2cc(-c3ccccc3)c3c(N4CCOCC4)ncnc32)cc1`, the Potency is reported as inconclusive [inhibitor, single point].
With `Cc1ccccc1-c1ccc(C(=O)NCc2ccccc2)o1` the Potency was inconclusive [inhibitor, single point].
In the case of `O=C1Cc2ccccc2C(=O)N1CCc1ccccc1`, the Potency is reported as inconclusive [inhibitor, single point].
For `Cc1cc2ccccc2c(=O)n1CC(=O)NCc1ccco1`, the Potency was inconclusive [inhibitor, single point].
In the case of `CCCCCC(=O)N1CCN(c2ccc(C(C)=O)cc2F)CC1`, the Potency is reported as inconclusive [inhibitor, partial curve].
For `NNC(=O)c1nc[nH]c1C(=O)Nc1ccccn1`, the Potency was active: 22.4 µM.
With `O=C(NCc1ccco1)c1ccc(S(=O)(=O)c2cccc(S(=O)(=O)N3CCOCC3)c2)cc1` the Potency was inconclusive [inhibitor, single point].
In the case of `O=C(NCCC1=CCCCC1)C1CCN(S(=O)(=O)c2cccs2)CC1`, the Potency is reported as active: 12.6 µM.
`O=C(Nc1cccnc1)c1noc2c1CCCCC2` was tested, and the Potency was inconclusive [inhibitor, single point].
`O=C(NCC(=O)N(Cc1cccs1)C(C(=O)NC1CCCC1)c1ccncc1)c1ccco1` (stereo not drawn) was tested, and the Potency was active: 7.94 µM.
`COc1ccc([N+](=O)[O-])cc1/C=N/Nc1nn[nH]n1` was tested, and the “activity, negative = inhibition” value was inactive: 5.56%.
`COc1ccccc1NC(=O)C1=C(C)NC(SCC(=O)c2ccc(C)cc2)=C(C#N)C1c1ccco1` (stereo not drawn) was tested, and the “activity, negative = inhibition” value was inactive: -90.5%.
In the case of `N#CCCn1c(=O)c(-c2cccs2)nc2cnc(OCc3ccccc3)nc21`, the Potency is reported as inconclusive [inhibitor, partial curve].
`COc1ccc(-n2c(=S)[nH]c3cc(C(=O)NCCCN4CCOCC4)ccc3c2=O)c(OC)c1` was tested, and the “activity, negative = inhibition” value was inactive: 8.87%.
With `Cc1ccc(-n2nnnc2-c2cnc3ccc(Cl)cc3c2-c2ccccc2)cc1` the Potency was inconclusive [inhibitor, single point].
With `Cn1cc(CN2CCc3ccccc3C2)c2ccccc21` the Potency was active: 14.1 µM.
In the case of `CN1CCn2c1nc(N1CCOCC1)nc2=O`, the “activity, negative = inhibition” value is reported as inactive: -3.23%.
In the case of `O=c1oc2ccccc2c(Cl)c1CN1CCCCC1`, the Potency is reported as inconclusive [inhibitor, single point].
`CC1CCc2sc(C(=O)NN=C3CCC(c4ccccc4)CC3)cc2C1` (stereo not drawn) was tested, and the Potency was active: 1.26 µM.
